# Measurements as given in PubChem BioAssay AID624296 (National Center for Advancing Translational Sciences (NCATS), 2012).
# Out of some 350,000 compounds screened, about 9,900 (2.8%) were called active. The shares of active, inactive and inconclusive entries below differ from those in the screen. The call rests on the fitted dose curve; in most records, active means well fitted activation curve with a large enough effect; inconclusive means small, poorly fitted or top-dose-only effect; inactive means no such curve, though single readings can be large or run the other way. No potency is given beside an inconclusive call; the fits are too rough.
# Assay: A quantitative high throughput screen for small molecules that induce DNA re-replication in MCF 10a normal breast cells. Further: nearly all actives have a fitted effect of over 50% in size. On activity, positive = re-replication: % of control where 0% means no effect.
# Conditions: MCF 10A DNA re-replication, Hoechst nuclear intensity, 48 h; activity, positive = re-replication: at 46.1 µM (top of the series)
# Potency means the concentration at half of the fitted maximal effect; tags describe the fitted curve by direction and shape.
SMILES,Potency,"activity, positive = re-replication"
O=C(Cn1ncc2c3ccccc3n(Cc3cccc(Cl)c3)c2c1=O)NCC1CCCO1 (stereo not drawn),"inconclusive [activator, single point]",–
CSc1ccc(C2C(C#N)=C(N)Oc3c2ccc(=O)c2c(C)oc(C)c32)cc1 (stereo not drawn),active: 18.4 µM,–
Cc1ccc(-c2ccc(C(=O)NCc3ccc(Cl)cc3)o2)c2ccccc12,"inconclusive [activator, single point]",–
COc1ccc2nc(SCCOC(=O)Nc3ccc(Cl)cc3)nc(C)c2c1,"inconclusive [activator, single point]",–
O=C(Nc1ccccc1Sc1ccccc1)c1ccccc1F,"inconclusive [activator, single point]",–
O=C(COc1ccc(S(=O)(=O)N2CCCCC2)cc1Cl)N1CCCC1,"inconclusive [activator, single point]",–
CCOC(=O)N1CCN(Cc2nc(N)nc(Nc3ccc(Oc4ccccc4)cc3)n2)CC1,"inconclusive [activator, single point]",–
Cc1ccc(C(=O)N/N=C\c2cc(Br)c(Br)o2)cn1,"inconclusive [activator, single point]",–
CC(C)CC(=O)NC(Nc1ccccc1F)C(Cl)(Cl)Cl (stereo not drawn),–,inactive: -5.72%
S=c1[nH]c(-c2ccccc2)cn1/N=C/c1cccs1,"inconclusive [activator, partial curve, poor fit]",–
C=CCO/N=C/C1C(=O)CC(C)(C)CC1=O,–,inactive: -0.793%
C=CCc1cc(C=O)cc(OCC)c1OCc1ccc(Cl)cc1,"inconclusive [activator, full curve, poor fit]",–
COc1ccc(OC)c(C2NC(=O)NC(C)=C2C(=O)OC2CCCCC2)c1 (stereo not drawn),"inconclusive [activator, partial curve, poor fit]",–
COc1ccc(NCC(=O)N/N=C/c2cc([N+](=O)[O-])ccc2N2CCCC2)cc1,"inconclusive [activator, partial curve, poor fit]",–
CCCCN(C(=O)c1ccccc1OCc1ccc(F)cc1)c1c(N)n(CC(C)C)c(=O)[nH]c1=O,–,inactive: -3.04%
CN(C)CCC1c2ccc(Cl)cc2CCc2cccnc21 (stereo not drawn) (tested in a mixture with another compound),"inconclusive [activator, full curve, poor fit]",–
COc1ccccc1CN1CC(C(=O)NCc2cc(F)cc(C(F)(F)F)c2)CCC1=O (stereo not drawn),–,inactive: -3.43%
Cc1ccc(NC(=O)COC(=O)C2(C)CC2(Cl)Cl)cc1S(=O)(=O)N1CCOCC1 (stereo not drawn),–,inactive: 2.15%
C=CCn1cc(C(C)=O)c(=O)[nH]c1=O,–,inactive: 0.445%
CSc1ccc(CCNC(=O)CCc2nnc3ccc(N4CCC5(CC4)OCCO5)nn23)cc1,"inconclusive [activator, partial curve, poor fit]",–
COc1ccc(C(=O)NC(=S)Nc2ccc(N3CCOCC3)c(Cl)c2)cc1[N+](=O)[O-],–,inactive: -1.81%
CN1CCN2c3ccccc3Cc3ccccc3C2C1 (stereo not drawn),"inconclusive [activator, full curve, poor fit]",–

SMILES,Potency,"activity, positive = re-replication"
CCOC(=O)C1(Cc2cccc(Cl)c2)CCCN(C(=O)c2ccco2)C1 (stereo not drawn),"inconclusive [activator, single point]",–
CCC(=O)c1ccc(OCC(O)CN2CCN(C(c3ccccc3)c3ccccc3)CC2)cc1 (stereo not drawn),"inconclusive [activator, partial curve, poor fit]",–
Cc1cc(/C=C2/NC(=O)NC2=O)c(C)n1-c1ccc(C#N)cc1,"inconclusive [activator, single point]",–
CCOCc1nnc(NC(=O)c2cc(OC)c(OC)cc2[N+](=O)[O-])s1,–,inactive: -10.8%
O=[N+]([O-])c1ccccc1N/N=C/c1cc2ccccc2nc1Cl,"inconclusive [activator, partial curve]",–
CC(C)N1C(=O)/C(=C/c2nc3ccccc3c(=O)n2-c2ccccc2)c2ccccc21,active: 16.4 µM,–
Cc1ccc(C(=O)OC(C)CN2CCN(C)CC2)cc1 (stereo not drawn),"inconclusive [activator, full curve, poor fit]",–
Cc1ccccc1-n1c(C)nnc1SCC(=O)N1CCc2ccccc2C1,"inconclusive [activator, single point]",–
Cc1ccc(C2=NN(C(=O)CCl)C(c3cccs3)C2)o1 (stereo not drawn),"inconclusive [activator, single point]",–
O=c1c2ccccc2[nH]c2ccccc12,–,inactive: 122%
CC(C)C1Cc2c(sc(NC(=S)NC(=O)c3ccccc3)c2C#N)CO1 (stereo not drawn),–,inactive: 23%
CCc1nc(Nc2ccc(OC)c(OC)c2)c2nnn(Cc3ccccc3Cl)c2n1,"inconclusive [activator, partial curve, poor fit]",–
Nc1nc(CN2CCN(c3ccccc3F)CC2)nc(Nc2ccc3c(c2)OCCO3)n1,"inconclusive [activator, single point]",–
Cc1ccccc1-n1nc2c(c1NC(=O)c1ccco1)CS(=O)(=O)C2,–,inactive: -1.46%
COc1ccc(S(=O)(=O)N2CC=C(C(=O)Nc3ccc(NC(C)=O)cc3)CC2)cc1,"inconclusive [activator, partial curve, poor fit]",–
CC(C)CCN(Cc1ccco1)S(=O)(=O)c1ccc(-c2ccc(=O)[nH]n2)s1,"inconclusive [activator, single point]",–
CC1CCCCC12NC(=S)N(c1ccccc1)N2 (stereo not drawn),"inconclusive [activator, full curve, poor fit]",–
Cc1cc([N+](=O)[O-])nn1Cc1ccc(C(=O)N/N=C/c2ccc(O)cc2O)cc1,"inconclusive [activator, full curve]",–
COc1cc(/C=N/Nc2nncn2N)ccc1OCc1c(C)no[n+]1[O-],active: 18.4 µM,–
Nc1ccc2nc(-c3ccccc3)c(-c3ccccc3)nc2c1,active: 20.6 µM,–
N#Cc1cnn2c3c(cnc12)C(=O)N1CCc2ccccc2C1C3 (stereo not drawn),"inconclusive [activator, single point]",–
